# In all, about 2,900 compounds were measured (“NF-kB SEAP reporter activity, fold change vs agonist alone”: median about 0.99, highest 2% from about 2.6 on). Some of the results follow.
# Key:
# RAW-Dual [1] = experiment: NF-kB SEAP reporter activity, fold change vs agonist alone; cytotoxicity flag (confluency mask): not cytotoxic; higher = enhanced NF-kB activity
# Method in brief: (§1)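 Cytotoxic wells were those whose IncuCyte confluency was below 70% of agonist controls in both mask sets. The cells were RAW-Dual macrophages at 50,000 cells/well in DMEM on 384-well plates, dosed with 50 nL of library stock by pin tool, stimulated with a PRR agonist 1 h later, and kept at 37 °C, 5% CO2 for 20 hours. IRF and NF-κB reporter activity, as fold change over agonist-alone wells, came from supernatant read by QuantiLuc luminescence and QuantiBlue absorbance, respectively.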
# RAW-Dual [2] = experiment: NF-kB SEAP reporter activity, fold change vs agonist alone; higher = enhanced NF-kB activity
# Method in brief: as §1
# RAW-Dual [3] = experiment: NF-kB SEAP reporter activity, fold change vs agonist alone; cytotoxicity flag (confluency mask): cytotoxic (confluency <70% of control); higher = enhanced NF-kB activity
# Method in brief: as §1
# [4] = agonist: ODN 1826 (TLR9) 0.5 ug/mL
# [5] = agonist: Pam2CSK4 (TLR2/6) 0.1 ug/mL
# [6] = agonist: Pam3CSK4 (TLR2/1) 0.1 ug/mL
# [7] = library stock concentration (final ~1000-fold dilution): 10 mM, cytotoxicity flag (confluency mask): not cytotoxic, agonist: Imiquimod (TLR7) […]
# [8] = library stock concentration (final ~1000-fold dilution): 10 mM, cytotoxicity flag (confluency mask): not cytotoxic, agonist: MPLA (TLR4) […]
# [9] = library stock concentration (final ~1000-fold dilution): 10 mM, cytotoxicity flag (confluency mask): cytotoxic (confluency <70% of control), agonist: MPLA (TLR4) […]
# [10] = library stock concentration (final ~1000-fold dilution): 10 mM, cytotoxicity flag (confluency mask): cytotoxic (confluency <70% of control), agonist: Imiquimod (TLR7) […]
compound,measurement,setting,value
CCN(c1cc(-c2ccc(CN3CCOCC3)cc2)cc(C(=O)NCc2c(C)cc(C)[nH]c2=O)c1C)C1CCOCC1 (library stock concentration (final ~1000-fold dilution): 2 mM),NF-kB SEAP reporter activity,RAW-Dual [1]; agonist: LPS (TLR4) 0.1 ug/mL,1.31
same,NF-kB SEAP reporter activity,RAW-Dual [1]; [4],0.964
same,NF-kB SEAP reporter activity,RAW-Dual [1]; [5],0.648
same,NF-kB SEAP reporter activity,RAW-Dual [1]; [6],0.835
CCN(c1cc(-c2ccc(CN3CCOCC3)cc2)cc(C(=O)NCc2c(C)cc(C)[nH]c2=O)c1C)C1CCOCC1,NF-kB SEAP reporter activity,"RAW-Dual [2]; library stock concentration (final ~1000-fold dilution): 2 mM, cytotoxicity flag (confluency mask): not cytotoxic, agonist: Imiquimod (TLR7) […]",0.913
same,NF-kB SEAP reporter activity,"RAW-Dual [2]; library stock concentration (final ~1000-fold dilution): 2 mM, cytotoxicity flag (confluency mask): not cytotoxic, agonist: MPLA (TLR4) […]",0.931
NC(N)=O (library stock concentration (final ~1000-fold dilution): 10 mM),NF-kB SEAP reporter activity,RAW-Dual [1]; agonist: LPS (TLR4) 0.1 ug/mL,0.868
same,NF-kB SEAP reporter activity,RAW-Dual [1]; [4],1.03
same,NF-kB SEAP reporter activity,RAW-Dual [1]; [5],0.987
same,NF-kB SEAP reporter activity,RAW-Dual [1]; [6],0.983
NC(N)=O,NF-kB SEAP reporter activity,RAW-Dual [2]; [7],1.12
same,NF-kB SEAP reporter activity,RAW-Dual [2]; [8],1.03
O=C1C(Cc2ccc(O)cc2)N2C(=O)CCN(C(=O)NCc3ccccc3)C2CN1Cc1cccc2ccccc12 (stereo not given),NF-kB SEAP reporter activity,RAW-Dual [2]; [7],1.45
same,NF-kB SEAP reporter activity,RAW-Dual [2]; [8],2.26
O=C1C(Cc2ccc(O)cc2)N2C(=O)CCN(C(=O)NCc3ccccc3)C2CN1Cc1cccc2ccccc12 (stereo not given) (library stock concentration (final ~1000-fold dilution): 10 mM),NF-kB SEAP reporter activity,RAW-Dual [1]; agonist: LPS (TLR4) 0.1 ug/mL,3.72
same,NF-kB SEAP reporter activity,RAW-Dual [1]; [4],1.08
same,NF-kB SEAP reporter activity,RAW-Dual [1]; [5],0.484
same,NF-kB SEAP reporter activity,RAW-Dual [1]; [6],0.63
CNCCCN1c2ccccc2CCc2ccccc21.Cl,NF-kB SEAP reporter activity,RAW-Dual [2]; [9],1.31
CNCCCN1c2ccccc2CCc2ccccc21.Cl (library stock concentration (final ~1000-fold dilution): 10 mM),NF-kB SEAP reporter activity,RAW-Dual [3]; agonist: LPS (TLR4) 0.1 ug/mL,1.53
same,NF-kB SEAP reporter activity,RAW-Dual [3]; [4],0.748
same,NF-kB SEAP reporter activity,RAW-Dual [3]; [5],0.908
same,NF-kB SEAP reporter activity,RAW-Dual [3]; [6],0.636
CC(C)(O)c1ccccc1CCC(SCC1(CC(=O)O)CC1)c1cccc(/C=C/c2ccc3ccc(Cl)cc3n2)c1 (stereo not given) (library stock concentration (final ~1000-fold dilution): 10 mM),NF-kB SEAP reporter activity,RAW-Dual [3]; agonist: LPS (TLR4) 0.1 ug/mL,1.21
same,NF-kB SEAP reporter activity,RAW-Dual [3]; [4],0.499
same,NF-kB SEAP reporter activity,RAW-Dual [3]; [5],0.814
same,NF-kB SEAP reporter activity,RAW-Dual [3]; [6],0.458
CC(C)(O)c1ccccc1CCC(SCC1(CC(=O)O)CC1)c1cccc(/C=C/c2ccc3ccc(Cl)cc3n2)c1 (stereo not given),NF-kB SEAP reporter activity,RAW-Dual [2]; [10],1.05
same,NF-kB SEAP reporter activity,RAW-Dual [2]; [9],0.809
O=C(O)CCn1c2c(c3ccccc31)CC(NS(=O)(=O)c1ccc(F)cc1)CC2 (stereo not given) (library stock concentration (final ~1000-fold dilution): 10 mM),NF-kB SEAP reporter activity,RAW-Dual [1]; agonist: LPS (TLR4) 0.1 ug/mL,1.07
same,NF-kB SEAP reporter activity,RAW-Dual [1]; [4],0.99
same,NF-kB SEAP reporter activity,RAW-Dual [1]; [5],1.13
same,NF-kB SEAP reporter activity,RAW-Dual [1]; [6],1.07
O=C(O)CCn1c2c(c3ccccc31)CC(NS(=O)(=O)c1ccc(F)cc1)CC2 (stereo not given),NF-kB SEAP reporter activity,RAW-Dual [2]; [8],1.07
O=C(Nc1ccc2[nH]nc(-c3ccc4[nH]ccc4c3)c2c1)c1c(Cl)cccc1Cl (library stock concentration (final ~1000-fold dilution): 10 mM),NF-kB SEAP reporter activity,RAW-Dual [3]; agonist: LPS (TLR4) 0.1 ug/mL,0.946
same,NF-kB SEAP reporter activity,RAW-Dual [3]; [4],0.844
same,NF-kB SEAP reporter activity,RAW-Dual [3]; [5],0.0858
same,NF-kB SEAP reporter activity,RAW-Dual [3]; [6],0.202
O=C(Nc1ccc2[nH]nc(-c3ccc4[nH]ccc4c3)c2c1)c1c(Cl)cccc1Cl,NF-kB SEAP reporter activity,RAW-Dual [2]; [10],0.55
same,NF-kB SEAP reporter activity,RAW-Dual [2]; [9],0.704

# Reference: the supplement of paper PMC10037445
